{"source": "PubChem BioAssay (Tox21)", "note": "This list was built around the results that the source calls inconclusive (neither active nor inactive); the mix of calls is not that of the screen. No potency is given beside an inconclusive call; the fits are too rough. Calls of active or inactive are those of the source. Calls follow the shape of the dose curve; as a rule, active = well fitted cell-killing curve with a large enough effect in the repeat runs; inconclusive = weak or mixed curves, or effect the other way; inactive = no such curve, though single readings can be large or run the other way. % is scaled to controls: 0 for no effect and ±100 for the full control effect; potency is read from the fitted curve at half-maximal effect; tags tell the direction and shape of the fitted curve."}
{"experiment": "qHTS assay to identify small molecule antagonists of the thyroid receptor (TR) signaling pathway - cell viability counter screen (AID 743064); also: nearly all actives have a fitted effect of over 50% in size", "conditions": "GH3.TRE-Luc viability, CellTiter-Fluor, 24 h; activity change, negative = cytotoxic: at 70.3 µM (top of the series) unless noted", "procedure,_shortened": "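CellTiter-Fluor readout, 30 min at 37 °C/5% CO2, following 23.5 h incubation of GH3.TRE-Luc cells with test compound and 1 nM T3 (final).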"}
{"smiles": "CCCCCCCCSCC", "activity change, negative = cytotoxic": "inactive: -6.08%"}
{"smiles": "CC[C@H](C)[C@@H](C(=O)O)n1sc2ccccc2c1=O", "activity change, negative = cytotoxic": "inactive: -9.56%"}
{"smiles": "COc1cc(N)ccc1C", "Potency": "inconclusive [rising, single point]"}
{"smiles": "CC(=O)N(CC(O)CN(C(C)=O)c1c(I)c(C(=O)NCC(O)CO)c(I)c(C(=O)NCC(O)CO)c1I)c1c(I)c(C(=O)NCC(O)CO)c(I)c(C(=O)NCC(O)CO)c1I", "note": "(stereo not given)", "Potency": "inconclusive [rising, full curve, poor fit]"}
{"smiles": "CC(C)Cc1nccs1", "activity change, negative = cytotoxic": "inactive: -0.69% [at 95 µM]"}
{"smiles": "CCCOc1ccccc1-c1nc2n[nH]nc2c(=O)[nH]1", "activity change, negative = cytotoxic": "inactive: 29.1%"}
{"smiles": "OCCCO", "Potency": "inconclusive [rising, single point]"}
{"smiles": "CCCCCCCCCCCCCCCC/C=C/C1CC(=O)OC1=O", "note": "(stereo not given)", "Potency": "inconclusive [cytotoxic, single point]"}
{"smiles": "O=C[O][Al]([O]C=O)[O]C=O", "activity change, negative = cytotoxic": "inactive: -2.84%"}
{"smiles": "CC1CC(O)CC(C)(C)C1", "note": "(stereo not given)", "Potency": "inactive"}
{"smiles": "O=C(CCCN1CCC(O)(c2ccc(Br)cc2)CC1)c1ccc(F)cc1", "Potency": "inconclusive [cytotoxic, full curve, poor fit]"}
{"smiles": "CCC(=O)OCCOc1ccccc1", "Potency": "inconclusive [rising, partial curve, poor fit]"}
{"smiles": "C=CC[N+]1([C@H]2C[C@H]3[C@@H]4CC[C@H]5C[C@H](OC(C)=O)[C@@H](N6CCCCC6)C[C@]5(C)[C@H]4CC[C@]3(C)[C@H]2OC(=O)CC)CCCCC1", "activity change, negative = cytotoxic": "inactive: 8.54%"}
{"smiles": "Cc1c(Nc2ncccc2C(=O)O)cccc1C(F)(F)F", "Potency": "inconclusive [cytotoxic, full curve]"}
{"smiles": "C[n+]1ccccc1/C=N/O", "activity change, negative = cytotoxic": "inactive: 11.8% [at 32.5 µM]"}
{"smiles": "Cc1cc(C)c(N)c(Cl)c1", "activity change, negative = cytotoxic": "inactive: 6.75%"}
{"smiles": "CC1CCC(C(C)C)C(O)C1", "note": "(stereo not given)", "Potency": "inconclusive [rising, single point]"}
{"smiles": "Cc1ncc([N+](=O)[O-])n1CC(C)O", "note": "(stereo not given)", "activity change, negative = cytotoxic": "inactive: 16%"}
{"smiles": "COCN(COC)c1nc(N(COC)COC)nc(N(COC)COC)n1", "Potency": "inconclusive [rising, single point]"}
{"smiles": "CN(C)CCCNCCC#N", "activity change, negative = cytotoxic": "inactive: -0.165%"}
{"smiles": "C1=COCCC1", "Potency": "inconclusive [rising, partial curve, poor fit]"}
{"smiles": "O=C(O)CCc1nc2ccccc2[nH]1", "activity change, negative = cytotoxic": "inactive: 16.2%"}
{"smiles": "O=C(O)c1ccc(CO)o1", "Potency": "inconclusive [rising, partial curve, poor fit]"}
{"smiles": "CCCCCOC(=O)CCC", "activity change, negative = cytotoxic": "inactive: 12.1%"}
{"smiles": "CCOC(=O)c1ccccc1", "activity change, negative = cytotoxic": "inactive: 6.44%"}
{"smiles": "Nc1nccs1", "Potency": "inactive"}
{"smiles": "CC(C)SCc1ccco1", "Potency": "inconclusive [rising, single point]"}
{"smiles": "CC(O)CNCC(C)O", "note": "(stereo not given)", "Potency": "inconclusive [rising, single point]"}
{"smiles": "CCCCCCCCS(=O)(=O)O", "Potency": "inconclusive [rising, full curve, poor fit]"}
{"smiles": "CC(=O)c1ccc(C)cc1", "Potency": "inconclusive [rising, full curve]"}
{"smiles": "CCCCCCC(=O)OCC", "Potency": "inconclusive [rising, partial curve, poor fit]"}
{"smiles": "CN1[C@@H]2CC[C@@H]1CC(OC(=O)C(CO)c1ccccc1)C2", "note": "(stereo not given in full)", "activity change, negative = cytotoxic": "inactive: 11.4%"}
{"smiles": "CC(C)=CCC/C(C)=C/CC/C(C)=C/CO", "Potency": "inconclusive [cytotoxic, single point]"}
{"smiles": "COc1cc(C)ccc1C(C)C", "activity change, negative = cytotoxic": "inactive: 0.0198%"}
{"smiles": "CC(C)CCCCOC(=O)c1ccccc1C(=O)OCCCCC(C)C", "activity change, negative = cytotoxic": "inconclusive: 5.08%"}
{"smiles": "O=S(=O)(Oc1ccc(Cl)cc1)c1ccccc1", "activity change, negative = cytotoxic": "inactive: 6.23%"}
{"smiles": "FC(F)OC(Cl)C(F)(F)F", "note": "(stereo not given)", "Potency": "inactive"}
{"smiles": "COc1ccccc1N1CCN(CCCNc2cc(=O)n(C)c(=O)n2C)CC1", "Potency": "inconclusive [cytotoxic, single point]"}
{"smiles": "C[C@@H]1O[C@@H](O[C@@H]2[C@@H](O)[C@H](OCCc3ccc(O)c(O)c3)O[C@H](CO[C@@H]3O[C@H](CO)[C@@H](O)[C@H](O)[C@H]3O)[C@H]2OC(=O)/C=C/c2ccc(O)c(O)c2)[C@H](O)[C@H](O)[C@H]1O", "Potency": "inconclusive [cytotoxic]"}
{"smiles": "CC(=O)OCc1ccc2c(c1)OCO2", "Potency": "inconclusive [rising, partial curve, poor fit]"}
